{"source": "PubChem BioAssay (NCI)", "system": "NCI-H322M lung", "assay": "growth of human tumour cells (NCI), 48 h", "note": "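Cultured in 96-well plates, cells were exposed to test compound for 48 hours across five concentrations. The concentration for 50% growth inhibition is given as GI50. TGI denotes the concentration required for complete inhibition of growth.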", "data": [{"smiles": "C=C1CC[C@H](C(=C)C)[C@H]2C=C(C)C(=O)C3=C(C(=O)[C@@](C)(O)C3)[C@H]12", "values": [{"measurement": "GI50", "result": 1.5, "unit": "µM"}, {"measurement": "TGI", "result": 2.83, "unit": "µM"}]}, {"smiles": "O/N=C(\\CSc1nnc(-c2c[nH]c3ccccc23)n1-c1ccccc1)c1ccc(Cl)cc1", "values": [{"measurement": "GI50", "result": 5.71, "unit": "µM"}, {"measurement": "TGI", "result": 73.3, "unit": "µM"}]}, {"smiles": "O=C(N/N=C/c1ccc(Cl)cc1)c1ccc(OCc2nc3ccc(Cl)cc3[nH]2)cc1", "values": [{"measurement": "GI50", "result": 12.6, "unit": "µM"}, {"measurement": "TGI", "result": 35.1, "unit": "µM"}]}]}
